According to PubChem BioAssay AID1259407 (Chemical Carcinogenesis Research Information System (CCRIS), 2018):
“Also recorded” adds a separate entry of the source. Not every entry of the source has a single result; some have several. The other results are left out here. No rule for the calls is given here. An entry can have further records. The values listed for one entry do not match, cause unknown; some may be repeats, others may stem from another dose, organism or construct than stated. Brackets tell where a record comes from. Letters count within one entry.

Tested on: CCRIS mutagenicity, Ames/micronucleus/aberration tests
Test: CCRIS mutagenicity studies

Row | Compound | mutagenic call (Test System: MOUSE LYMPHOMA, Strain/Indicator: L5178Y (TK+/TK-), Metabolic Activation: NONE, Method: SUSPENSION/PLATE) | mutagenic call (Test System: MOUSE LYMPHOMA, Strain/Indicator: L5178Y (TK+/TK-), Metabolic Activation: RAT, LIVER, S-9, AROCLOR 1254, Method: SUSPENSION/PLATE) | mutagenic call (End Point: IN VITRO CHROMOSOMAL ABERRATIONS, Test System: CHL CELLS, Metabolic Activation: NONE) | mutagenic call (Test System: AMES SALMONELLA TYPHIMURIUM, Strain/Indicator: TA98, Metabolic Activation: RAT LIVER S-9, PHENOBARBITAL AND BETA-NAPHTHOFLAVONE, Method: PREINCUBATION)
1 | O=C1OC2(c3ccccc31)c1cc(I)c(O)c(I)c1Oc1c2cc(I)c(O)c1I | inactive; negative [study A]; also recorded: active; positive. reevaluation of results: positive [study B] | active; positive. reevaluation of results: positive [study A]; also recorded: active; positive [study B] | – | –
2 | O=[N+]([O-])c1ccc(Cl)cc1Cl | – | – | inactive; negative; authors report equivocal results for ploidy changes at 0.1 and 0.2 mg/; also recorded: inactive; negative; authors report equivocal results for ploidy changes at highest dose | inactive; negative and active; positive
